# Results as given in paper PMC6212790.
# This is one part of the list. At the low end of the ranking, values are background and their order means little.
# Target: T1, GST-Rok-C97-191 (UniProt O34857)
# T1 sequence: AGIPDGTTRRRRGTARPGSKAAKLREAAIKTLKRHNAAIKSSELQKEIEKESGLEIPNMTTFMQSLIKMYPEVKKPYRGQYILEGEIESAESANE
# Assay: protein binding microarray;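 also: rank score from −0.5 (least bound) to 0.5 (best bound)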
# Details: Rok is a gene silencer of Bacillus subtilis; high values mean tight binding; most listed sequences are background and not binding sites; double strand, one strand shown
row,Sequence,binding signal [E-score]
1,AGGTAGTG,-0.0194
2,AGGCCCGC,-0.197
3,GTAGAGAC,0.164
4,GCTAGCGA,-0.0168
5,GTATAGTA,0.25
6,AGGTTCAT,-0.153
7,ACCCGGTA,0.254
8,AGTGGATC,-0.0369
9,GGGATATA,0.233
10,ACAGTCTC,-0.113
11,CACGATTC,-0.05
12,TTTACAAA,0.212
13,ATTTATTG,0.2
14,AGTTCTTC,-0.0494
15,TCGCAACA,-0.0722
16,CTGCGGAA,-0.125
17,CCAGAGAG,-0.143
18,GACGTTAC,0.0544
19,GATGTACC,0.118
20,TGTTCTAA,0.0945
21,CGTCTTAG,-0.159
22,ATTTAACG,0.173
23,CACTCTGA,-0.177
24,AACATCCT,0.0847
25,TAGCGACA,-0.0369

row,Sequence,binding signal [E-score]
1,CCGCGAAC,0.101
2,TAAGACTA,0.0426
3,AGCGCACT,-0.0109
4,ATGTAATC,0.101
5,GGGACCAA,-0.294
6,CCACCGGC,-0.195
7,TAGTTACA,0.292
8,CCCGGCAC,-0.0752
9,CACTAACA,0.114
10,CACGAGAA,-0.178
11,GACCGATC,-0.12
12,AAGATGCT,-0.0226
13,TAACAAAA,0.19
14,GATGATAC,-0.0732
15,CCAAGTCC,-0.133
16,ACTGACAG,0.0188
17,CCGCCTCC,-0.322
18,CATGCCGG,-0.227
19,CATAAACC,0.138
20,AGTTTTTG,0.161
21,ACCGAACT,0.0541
22,CATCTATA,0.201
23,AACAAGTC,-0.0355
24,GAGAGCCC,-0.356
25,CACATAGC,0.0478

row,Sequence,binding signal [E-score]
1,AGATCGTG,-0.102
2,CCAGACAG,-0.328
3,GATGCAAC,-0.12
4,CGATATGA,-0.0464
5,ACCAGTGC,-0.104
6,ATTCTTGA,0.0728
7,AAGGAAGG,-0.243
8,CAACATAG,0.0825
9,CACGTTAC,0.168
10,ACCTATCC,0.0672
11,ATTCTATA,0.224
12,ACGCCACA,-0.118
13,CTGTACAC,-0.0793
14,CTCTCGCC,-0.229
15,ATCCGAGA,0.175
16,GCCAGCCC,-0.233
17,ACCGAAGG,-0.0855
18,CCATCATA,0.137
19,AATTTAAC,0.313
20,AAATAGTC,0.049
21,CAAAACCG,-0.162
22,ACTCGCCA,-0.101
23,GCCCGGTA,-0.225
24,AAGATGTA,0.193
25,GTAGGATA,0.122

row,Sequence,binding signal [E-score]
1,AGTGCTAC,0.179
2,ATTCCCCC,-0.222
3,TGTGCACA,0.0256
4,CCTTGTAA,0.0551
5,TGACCCCA,-0.313
6,CTACAGAG,0.0148
7,CTAGTGAG,0.0621
8,CAGGCATC,-0.0851
9,ATGGGATA,0.257
10,ATCGAGGG,0.0393
11,GAGATATA,0.301
12,AGCCAACT,0.0439
13,ACTCGTTA,0.225
14,CAGACGAA,-0.0248
15,GAACAACA,-0.209
16,GCCGGAGA,-0.0719
17,CCGCAAAC,-0.209
18,GCATTTCA,0.0946
19,CCGTAACC,0.0227
20,TGCTATAA,0.312
21,AAGCTGCT,-0.00165
22,ACCCTCTG,-0.172
23,CAGGCTCC,-0.243
24,AACTTGAC,0.11
25,CGGGGATC,-0.215

row,Sequence,binding signal [E-score]
1,GCAAAGAA,0.0898
2,CACACCGA,0.0716
3,CGACGATC,-0.192
4,AACCAGGG,-0.181
5,ATACGGGA,0.0102
6,CGAGTGTC,-0.0337
7,TAGACCCA,0.00211
8,AGACAAGC,-0.168
9,AGTTCGGA,0.173
10,TCCAATCA,-0.117
11,AACGCCCC,-0.377
12,AAGTGACG,0.155
13,AGACTAAG,0.0462
14,AGGCGCCT,-0.263
15,AACTTTTG,0.0934
16,CCGCGTAG,-0.103
17,CAAGTTAG,0.158
18,AATACTGC,0.171
19,CATGTTAG,0.0269
20,AAGTTTCG,0.206
21,CCTTACAG,0.14
22,ACTGCCAG,-0.198
23,ATGAGGCA,-0.213
24,AGGTACAA,0.0985
25,CATAACCA,0.0637

row,Sequence,binding signal [E-score]
1,ATTGGAAC,-0.0509
2,GAACTATC,0.261
3,GAGACCAC,-0.222
4,ATGAACTA,0.0301
5,CTGTAGCC,-0.184
6,ATCGAATA,0.254
7,CAAGATTG,-0.223
8,CAGGCCTA,-0.128
9,CCGTGAGA,-0.0715
10,ATTAGACA,0.11
11,AGGCGTCC,-0.159
12,GTATGGGA,-0.0116
13,CAAACGGC,-0.0245
14,TGGGGCAA,-0.15
15,CGCATGGA,-0.108
16,AAAACTCC,0.137
17,AATCATAA,0.0596
18,TACGTACA,0.29
19,CAGTAGAA,0.426
20,CAATTGTA,0.251
21,ACTCCCCA,-0.38
22,AGGGGGTA,-0.196
23,ATGCAGTA,0.297
24,CGCTACAA,0.104
25,CCGTATCC,-0.127

row,Sequence,binding signal [E-score]
1,CCGCAGGC,-0.204
2,GACCAAAC,-0.18
3,AGCCATCC,-0.0947
4,AAAGTGCT,-0.0434
5,CCTCCAGG,-0.193
6,ACTAATGC,0.262
7,GTCGAATA,0.168
8,ATGATTAA,0.00647
9,AGTCTCAC,-0.119
10,AATTTACC,0.345
11,AGTAGGAG,0.094
12,ACATATGC,0.153
13,AATAGTAA,0.338
14,CCCTTACG,-0.155
15,CACACATC,-0.184
16,GAACACTC,-0.0181
17,CACCGACG,-0.171
18,CCTGTTAG,-0.0254
19,TAACTACA,0.423
20,AGGTATAC,0.19
21,CCAGGGGC,-0.361
22,GACAAAGA,-0.148
23,GCTTGTCC,-0.189
24,ACCAGTGG,-0.116
25,CGCTGCCG,-0.359

row,Sequence,binding signal [E-score]
1,CGTTGTAG,0.203
2,ATGGCCTA,-0.00532
3,CTATAGGC,-0.0221
4,ATCAAGAC,-0.00216
5,CAAGTCAC,-0.185
6,ATAATCAA,0.149
7,ACTCTTCA,0.0616
8,GGAGGGAA,-0.24
9,AAAAGCCT,-0.25
10,AAGGAGGT,-0.151
11,TGCCGAAA,-0.0675
12,CCGCCTAC,-0.125
13,CGTTCGGA,-0.066
14,AACAATGT,0.268
15,AGTCTGAT,0.0417
16,TACGAAAA,0.0466
17,ACGAAACA,0.162
18,TAGACGAA,-0.0468
19,CGGATCAC,-0.124
20,ATGCTGCG,-0.0967
21,CGTGGAAA,-0.0677
22,GAGAACAA,-0.0435
23,ATCTCTTG,0.118
24,GTTAAGGA,0.0416
25,AGCCGACA,-0.172

row,Sequence,binding signal [E-score]
1,ACCATATC,0.239
2,CAGTCCCC,-0.312
3,CAACAAGC,-0.0233
4,CTGACGTC,-0.208
5,AAGAGCAT,-0.182
6,AGGCTGGG,-0.256
7,AATGCTAT,0.21
8,GGGATGTA,0.169
9,ACTCTGAA,-0.133
10,AACCGCGT,-0.0223
11,GCAGTCCC,-0.226
12,GATACTTA,0.158
13,ATGGGAAG,-0.194
14,CCCAGAAA,-0.192
15,CTTACCTC,0.0439
16,AAATTTAT,0.292
17,CGTTCAAC,-0.0993
18,ACTGTGCG,-0.106
19,ATTTTAGG,0.193
